Results published in PubChem BioAssay AID504339 (National Center for Advancing Translational Sciences (NCATS), 2011).
The whole screen tested about 390,000 compounds, of which about 17,000 (4.4%) were called active. The shares of active, inactive and inconclusive entries below differ from those in the screen. Calls come from the whole dose curve; as a rule, active = well fitted inhibition curve with a large enough effect; inconclusive = small, poorly fitted or top-dose-only effect; inactive = no such curve, though single readings can be large or run the other way. Potencies of inconclusive entries are doubtful fits and often do not repeat.

What follows are molecules tested against Lysine-specific demethylase 4A (Homo sapiens) (UniProt O75164) (assay: qHTS Assay for Inhibitors of JMJD2A-Tudor Domain). Details: AlphaScreen JMJD2A-Tudor / H3K4me3 peptide binding; activity change, negative = inhibition: at 114 µM (top of the series).
% is set by controls: 0 for no effect and ±100 for the full control effect; potency is the fitted concentration of half-maximal effect; tags give direction and shape of the fitted curve.
Note: nearly all actives have a fitted effect of over 50% in size.

UniProt O75164, sequence (O75164 whole entry, looked up, the tested form may be a part): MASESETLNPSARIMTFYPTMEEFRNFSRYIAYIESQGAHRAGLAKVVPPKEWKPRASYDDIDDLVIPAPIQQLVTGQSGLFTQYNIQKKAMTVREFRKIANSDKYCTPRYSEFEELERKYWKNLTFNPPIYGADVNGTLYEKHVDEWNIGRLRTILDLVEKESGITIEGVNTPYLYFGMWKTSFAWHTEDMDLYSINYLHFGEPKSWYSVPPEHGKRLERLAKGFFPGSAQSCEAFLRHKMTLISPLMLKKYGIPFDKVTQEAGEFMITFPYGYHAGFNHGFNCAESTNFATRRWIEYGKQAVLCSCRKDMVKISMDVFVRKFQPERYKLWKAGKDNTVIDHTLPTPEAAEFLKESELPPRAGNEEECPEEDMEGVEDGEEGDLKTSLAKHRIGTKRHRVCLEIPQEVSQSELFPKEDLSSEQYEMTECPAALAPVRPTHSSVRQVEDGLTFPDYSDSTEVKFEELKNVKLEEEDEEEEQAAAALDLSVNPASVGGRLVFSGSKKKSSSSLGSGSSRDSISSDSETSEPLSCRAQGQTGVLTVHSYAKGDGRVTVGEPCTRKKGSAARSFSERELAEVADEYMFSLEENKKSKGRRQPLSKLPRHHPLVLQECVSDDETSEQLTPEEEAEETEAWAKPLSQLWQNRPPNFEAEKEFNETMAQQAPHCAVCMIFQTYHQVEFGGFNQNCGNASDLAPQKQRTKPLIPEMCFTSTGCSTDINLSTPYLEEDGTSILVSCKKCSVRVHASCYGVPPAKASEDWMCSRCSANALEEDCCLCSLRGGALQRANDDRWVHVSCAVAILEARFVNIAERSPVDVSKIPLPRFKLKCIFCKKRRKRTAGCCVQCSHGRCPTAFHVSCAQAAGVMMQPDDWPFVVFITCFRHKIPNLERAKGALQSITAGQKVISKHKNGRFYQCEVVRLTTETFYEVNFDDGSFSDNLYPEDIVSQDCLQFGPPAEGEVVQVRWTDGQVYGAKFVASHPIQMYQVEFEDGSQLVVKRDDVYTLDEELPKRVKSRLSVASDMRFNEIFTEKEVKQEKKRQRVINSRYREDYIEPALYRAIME

| SMILES | activity change, negative = inhibition | Potency |
| --- | --- | --- |
| COc1ccc(Cl)cc1NC(=O)CN(C)C(=O)CCNC(=O)c1ccccc1OC | inactive: -16.1% |  |
| Cc1ccc(N=Nc2c(N)nn(-c3ccccc3)c2N)cc1 |  | active: 35.5 µM |
| COc1ccc(S(=O)(=O)Cc2ccc(C(=O)N3CCc4ccccc4C3)o2)cc1 |  | inconclusive: 89.1 µM [inhibitor, single point] |
| CC(=O)N(c1ccccc1)c1ccc([N+](=O)[O-])cc1[N+](=O)[O-] |  | inconclusive: 56.2 µM [inhibitor, partial curve] |
| COc1cc(F)cc(F)c1[S+](=O)([O-])N1CCN([S+](=O)([O-])c2ccc3c(c2)OCCO3)CC1 | inactive: -2.05% |  |
| COc1ccc2c(C#CCCO)c(-c3ccc(S(C)(=O)=O)cc3)sc2c1 |  | inconclusive: 31.6 µM [inhibitor, full curve, poor fit] |
| Nc1ccc(-c2nnc(-c3ccc(-c4ccccc4)cc3)o2)cc1 |  | inconclusive: 89.1 µM [inhibitor, single point] |
| COc1ccc2[nH]c(C)c(CCN(Cc3cccs3)C(=S)Nc3ccccc3OC)c2c1 |  | inconclusive: 44.7 µM [inhibitor, partial curve] |
| COc1ccc(C2c3ccc4ccccc4c3Oc3ncn(CCN4CCOCC4)c(=N)c32)cc1OC (configuration not stated) |  | inconclusive: 56.2 µM [inhibitor, partial curve] |
| C[C@H](N)c1nnc(SCC(=O)c2ccc(Cl)cc2)o1 | inactive: -5.11% |  |
| C=CCn1c(SCc2nc3sc(C(=O)O)c(C)c3c(=O)[nH]2)nnc1-c1ccccc1 |  | active: 25.1 µM |
| CCCOP(=O)(c1ccc(N(C)C)cc1)C(Nc1ccccc1)c1ccc(N(C)C)cc1 (configuration not stated) |  | inconclusive: 22.4 µM [inhibitor, full curve] |
| COc1ccc(C2Nc3ccccc3C(=O)N2Cc2ccc(C(F)(F)F)cc2)cc1COc1ccc(NC(C)=O)cc1 (configuration not stated) |  | inconclusive: 17.8 µM [inhibitor, partial curve, poor fit] |
| CCOC(=O)C(=N/O)/C(C)=N/NC(=O)C(=O)Nc1cc(Cl)ccc1Cl |  | inconclusive: 25.1 µM [inhibitor, full curve] |
| Cc1ccc(CN2CCc3nc(N4CCN(C)CC4)ncc3C2)s1 |  | inconclusive: 79.4 µM [inhibitor, single point] |
| CC(C)(C)N(CC#CCC(O)(c1ccccc1)c1ccccc1)CCO |  | active: 22.4 µM |
| COc1ccc2[nH]c(=O)c(-c3nnn(-c4ccc(Cl)nc4)n3)cc2c1 |  | active: 50.1 µM |
| O=C(C(Cc1ccccc1)n1cccc1)N1CCN(c2ccccc2)CC1 (configuration not stated) |  | inconclusive: 56.2 µM [inhibitor, partial curve] |
| Cc1c(Cl)cccc1NC(=O)Cn1cnc2nc3c(cc2c1=O)CCCC3 |  | inconclusive: 50.1 µM [inhibitor, partial curve] |
| Cc1ccc(C(=O)NCC(=O)NCc2ccccc2F)s1 | inactive: 1.48% |  |
| COc1ccc(C(CCNCc2ccc(N(C)C)cc2)C(C)C)cc1 (configuration not stated) |  | active: 31.6 µM |
| O=[N+]([O-])c1ccccc1Oc1ccc(Cl)c2cccnc12 | inactive: -16.8% |  |
| CCCNC(=O)Nc1ccc(NC(C)=O)cc1 |  | inconclusive: 17.8 µM [inhibitor, single point] |
| COc1ccc(CNc2ccc(S(N)(=O)=O)cc2)cc1 | inactive: -5.2% |  |

| SMILES | activity change, negative = inhibition | Potency |
| --- | --- | --- |
| O=C(O)c1ccc2c(c1)S(=O)(=O)c1cc(Cl)ccc1C2=O | inactive: -21.1% |  |
| COc1ccc(CCNC(=O)c2ccc(-c3cccc([N+](=O)[O-])c3)o2)cc1OC |  | inconclusive: 56.2 µM [inhibitor, partial curve, poor fit] |
| Cc1ccc(NC(=O)C2CCN(S(=O)(=O)c3c(C)noc3/C=C/c3ccco3)CC2)cc1C |  | inconclusive: 17.8 µM [inhibitor, full curve] |
| CCN(CC)c1ccc(/C=N/N2CCOCC2)c(O)c1 | inactive: -25.5% |  |
| COc1ccc(C2C(C(=O)Nc3cc(C)on3)c3ccccc3C(=O)N2C)cc1OC (configuration not stated) | inactive: -30.1% |  |
| COc1ccc2nc3c(cc2c1)Cn1c-3nc2ccccc2c1=O | inactive: 2.76% |  |
| CCC(C(=O)OC)(C(=O)OC)c1ccc([N+](=O)[O-])cc1 | inactive: -11.6% |  |
| Cc1cc(C(=O)N/N=C/c2cccn2C)no1 | inactive: -9.09% |  |
| CCOC(=O)C1=C(CSCc2ccccc2)NC(=O)NC1c1cc(C)ccc1C (configuration not stated) |  | inconclusive: 50.1 µM [inhibitor, partial curve] |
| Cc1ccc(C2=NN(CC(=O)NCCN(CC(C)C)CC(C)C)C(=O)CC2)cc1 |  | inactive |
| Cc1ccc(-c2noc(CNC(=O)c3ccccc3)n2)cc1 | inactive: -13.9% |  |
| COc1ccc(C(=O)COC(=O)Cn2c(C)csc2=O)c(OC)c1 |  | inconclusive: 35.5 µM [inhibitor, partial curve] |
| CCC1CN(C(=O)N2CCC(C(=O)NCc3ccccc3C)CC2)c2ccccc2O1 (configuration not stated) |  | inconclusive: 35.5 µM [inhibitor, full curve, poor fit] |
| Cc1ccc(-c2cc3c(n2-c2ccc(C)cc2)CC(C)(C)CC3=O)cc1 |  | inconclusive: 3.55 µM [inhibitor, single point] |
| Nc1nc(Nc2ccccc2)nc(NC2CCCCC2)c1[N+](=O)[O-] |  | inconclusive: 44.7 µM [inhibitor, partial curve] |
| CCN(CC)CCCN(C(=O)c1ccccc1C)c1nc(-c2ccc(OC)cc2)cs1 |  | active: 44.7 µM |
| O=C(NCc1ccccc1)c1ccc(CSc2nc3cccnc3n2Cc2ccccc2F)cc1 |  | active: 5.62 µM |
| CC(C)C(c1nnnn1C(C)(C)C)N1CCOCC1 (configuration not stated) |  | active: 39.8 µM |
| CCN(CC)C(=O)CSc1nnc(-c2ccccn2)n1-c1ccccc1OC |  | inconclusive: 56.2 µM [inhibitor, partial curve, poor fit] |
| Cc1cc(/N=C/C=C2\N(C)c3ccccc3C2(C)C)n(CCC#N)n1 |  | inconclusive: 50.1 µM [inhibitor, partial curve] |
| CC(=O)NC(CC(=O)OCC(=O)c1ccc(NC(=O)CC(C)C)cc1)c1ccccc1 (configuration not stated) |  | inconclusive: 28.2 µM [inhibitor, full curve] |
| CC1CCN(S(=O)(=O)c2ccc3c(c2)CCC(=O)N3CC(=O)Nc2cccc(C#N)c2)CC1 | inactive: -32.1% |  |
| O=C1CCC(=O)N1CNc1ccc(Oc2ccccc2)cc1 |  | inconclusive: 56.2 µM [inhibitor, partial curve] |
| COc1ccc(N2CCN(C(=O)c3cc4c(=O)n(Cc5ccco5)ccc4nc3C)CC2)cc1 | inactive: -29.7% |  |

| SMILES | activity change, negative = inhibition | Potency |
| --- | --- | --- |
| O=C(CSc1nccn1Cc1ccc(Cl)cc1)Nc1nc2ccccc2s1 |  | inconclusive: 50.1 µM [inhibitor, partial curve] |
| Cc1cc(N2C(=O)C(O)=C(C(=O)c3ccco3)C2c2cccc(Cl)c2)no1 (configuration not stated) | inactive: -24% |  |
| O=C(CCc1nc(-c2ccccc2F)no1)NCCN1CCOCC1 | inactive: -8.96% |  |
| Cc1ccc2oc3c(c(=O)c2c1)C(c1cccs1)N(CCCN(C)C)C3=O (configuration not stated) | inactive: -22.4% |  |
| O=C(CN1C(=O)NC2(CCCC2)C1=O)N1CCc2ccccc2C1 | inactive: 1.4% |  |
| C=C(CN(C)C)C(=O)c1ccc(OC2OC(COC(C)=O)C(OC(C)=O)C(OC(C)=O)C2OC(C)=O)cc1 (configuration not stated) |  | active: 89.1 µM |
| COc1ccc(/C=C2\SC(=S)N(CCCC(=O)Nc3ccc(C(=O)O)cc3)C2=O)cc1OC |  | inconclusive: 39.8 µM [inhibitor, full curve, poor fit] |
| Cc1ccccc1CCNC(=O)c1ccc(Cn2c(=O)c3cccn3c3cccnc32)cc1 | inactive: -17.9% |  |
| COC(=O)c1ccc(OCc2nc(N)nc(N3CCOCC3)n2)cc1 |  | inconclusive: 79.4 µM [inhibitor, single point] |
| CC(=O)Nc1ccc(-c2csc(NC(C)c3ccccc3)n2)cc1 (configuration not stated) | inactive: -22% |  |
| NS(=O)(=O)c1ccc(O)c(NC(=O)c2ccc([N+](=O)[O-])o2)c1 |  | active: 50.1 µM |
| Cc1oc(/C=N/NC(=O)CN(c2ccccc2Br)S(C)(=O)=O)cc1Br |  | inconclusive: 79.4 µM [inhibitor, single point] |
| Oc1ccccc1-c1cc(-c2ccco2)[nH]n1 |  | inconclusive: 89.1 µM [inhibitor, partial curve, poor fit] |
| CC(C)[C@@H](C(=O)NC1CCN(Cc2ccccc2)CC1)N1C(=O)N2CCc3c([nH]c4ccccc34)[C@@]2(C)C1=O |  | inconclusive: 50.1 µM [inhibitor, partial curve] |
| COc1ccc(-c2nc(C(=O)Nc3cccc(C(C)=O)c3)nn2-c2ccccc2Cl)cc1 |  | inconclusive: 89.1 µM [inhibitor, partial curve] |
| Cc1ccc(C)c(N2CCN(S(=O)(=O)c3c(C(=O)N4CCC(C)CC4)c(C)n(C)c3C)CC2)c1 |  | inconclusive: 56.2 µM [inhibitor, partial curve] |
| CN(C)N=Nc1ccc(-c2cn(Cc3ccccc3)cn2)cc1 |  | inconclusive: 79.4 µM [inhibitor, partial curve] |
| Cc1ccc(NC(=O)C2CCCN(C(=O)c3ccc(Cl)cc3)C2)cc1C (configuration not stated) | inactive: -6.9% |  |
| Fc1ccc(C(c2nnnn2C2CCCC2)N2CCc3ccccc32)cc1 (configuration not stated) |  | inconclusive: 56.2 µM [inhibitor, partial curve] |
| COc1ccc(/C=C/c2ccc3ccccc3[n+]2C)cc1OC |  | inconclusive: 39.8 µM [inhibitor, single point] |
| Cc1ccc(-c2nnn(CC(=O)NCC3COCCO3)n2)o1 (configuration not stated) |  | active: 50.1 µM |
| Cc1nnc(NC(=O)c2ccc(F)c(S(=O)(=O)N3CCCCC3)c2)s1 |  | inconclusive: 112 µM [inhibitor, partial curve, poor fit] |
| COCCNC(=O)CN(C(=O)CCC(=O)Nc1cc(C)on1)c1cccc(C)c1C |  | active: 79.4 µM |
| CC1(c2ccccc2)NC(=O)N(CC(=O)Nc2ccc(S(=O)(=O)Nc3ncccn3)cc2)C1=O (configuration not stated) | inactive: -0.69% |  |
